This note sets out measurements from a collection of fitness landscapes (doi:10.1016/j.celrep.2020.107928).

First the molecules themselves.
B1: Caulobacter ParB omega fusion; a variant is named by its letters at X, in order, B8GW30 (parent)
chain: MESVVVGEPGMSEGRRGLGRGLSALLGEVDAAPAQAPGEQLGGSREAPIEILQRNPDQPRRTFREEDLEDLSNSIREKGVLQPILVRPSPDTAGEYQIVAGERAWRAAQRAGLKTVPIMVRELDDLAVLEIGIIENVQRADLNVLEEALSYKVLMEKFERTQENIAQTIGKSXSHVANXMRLLXLPDEVQSYLVSGELTAXHARAIAAAADPVALAKQIIEGGLSVRETEALARKAPNLSAGKSKGGRPPRVKDTDTQALESDLSSVLGLDVSIDHRGSTGTLTITYATLEQLDDLCNRLTRGI

Over roughly 81,000 sequences, “one-hybrid fitness for binding parS DNA” has its median near -0.17; the highest 2% begin near 0.51. This is one part of the list.

The variants in the experiment derive from B1. Briefly: one-hybrid fitness for binding parS DNA (scaled: cognate 1, non-cognate 0); higher = stronger binding. Conditions: with parS DNA site. The essentials:
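Fitness is the rescaled log change in variant-to-wild-type read ratio, measured by Illumina sequencing of plasmids before and after bacterial one-hybrid selection. The scale puts cognate at 1 and non-cognate at 0. Selection of Caulobacter ParB libraries, four specificity codons randomised, took place in E. coli USO with a HIS3 reporter, site 19 bp from the promoter, over 48 hours at 37°C on M9-minus-histidine with 0.1 mM IPTG and 5 mM 3-AT.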
In the case of TYNQ, the “one-hybrid fitness for binding parS DNA” value was at most 0.2. Regarding VYRL, the “one-hybrid fitness for binding parS DNA” value is at most 0.2. Consider MHLM, for which the “one-hybrid fitness for binding parS DNA” value is at most 0.2. The result for KNIR reads at most 0.2.

For the variant HLAS, the “one-hybrid fitness for binding parS DNA” value is at most 0.2. Take IIHM: the “one-hybrid fitness for binding parS DNA” value was at most 0.2.

In the case of STEV, the “one-hybrid fitness for binding parS DNA” value was at most 0.2. Regarding FTIG, the “one-hybrid fitness for binding parS DNA” value was at most 0.2. With QLQM, the “one-hybrid fitness for binding parS DNA” value is at most 0.2. Regarding QVNS, the “one-hybrid fitness for binding parS DNA” value was at most 0.2.

For the variant YQFS, the “one-hybrid fitness for binding parS DNA” value was at most 0.2. HQYR: the “one-hybrid fitness for binding parS DNA” value was at most 0.2. The result for ESHA reads at most 0.2. With FFPS, the “one-hybrid fitness for binding parS DNA” value is at most 0.2. VPPR: the “one-hybrid fitness for binding parS DNA” value is at most 0.2. RTIW: the “one-hybrid fitness for binding parS DNA” value is 0.211. Consider YRTS, for which the “one-hybrid fitness for binding parS DNA” value was found to be 0.304. Take CDHT: the “one-hybrid fitness for binding parS DNA” value is at most 0.2. On to QDRD, for which the “one-hybrid fitness for binding parS DNA” value was at most 0.2. VDEA: the “one-hybrid fitness for binding parS DNA” value is at most 0.2.

TWTT: the “one-hybrid fitness for binding parS DNA” value was at most 0.2. With QNWW, the “one-hybrid fitness for binding parS DNA” value is at most 0.2. Consider RIIL, for which the “one-hybrid fitness for binding parS DNA” value is at most 0.2. For CTYA, the “one-hybrid fitness for binding parS DNA” value was at most 0.2. Consider PSMC, for which the “one-hybrid fitness for binding parS DNA” value is at most 0.2. As for KGRA, the “one-hybrid fitness for binding parS DNA” value is at most 0.2. With CLQG, the “one-hybrid fitness for binding parS DNA” value was at most 0.2. The result for VRLT reads at most 0.2; that for NMSF, at most 0.2. As for VKME, the “one-hybrid fitness for binding parS DNA” value was at most 0.2. Regarding CTFA, the “one-hybrid fitness for binding parS DNA” value was at most 0.2. Take FCCG: the “one-hybrid fitness for binding parS DNA” value is at most 0.2. As for RYQC, the “one-hybrid fitness for binding parS DNA” value was determined as 0.898. Take NGDV: the “one-hybrid fitness for binding parS DNA” value is at most 0.2. In the case of NESY, the “one-hybrid fitness for binding parS DNA” value is at most 0.2. For ITWV, the “one-hybrid fitness for binding parS DNA” value is at most 0.2. For the variant FTML, the “one-hybrid fitness for binding parS DNA” value was at most 0.2.

As to VHTW, the “one-hybrid fitness for binding parS DNA” value was at most 0.2.

As for RGGA, the “one-hybrid fitness for binding parS DNA” value is 0.285. With FKIV the figure was at most 0.2; with QLAQ, at most 0.2; with SWKQ, at most 0.2. Consider QSNI, for which the “one-hybrid fitness for binding parS DNA” value is at most 0.2. For YHSP, the “one-hybrid fitness for binding parS DNA” value is at most 0.2. With QFYT, the “one-hybrid fitness for binding parS DNA” value is at most 0.2.

On to PSTV, for which the “one-hybrid fitness for binding parS DNA” value is at most 0.2. Consider STKD, for which the “one-hybrid fitness for binding parS DNA” value is at most 0.2. Consider FVES, for which the “one-hybrid fitness for binding parS DNA” value was at most 0.2.

Take DGGD: the “one-hybrid fitness for binding parS DNA” value was at most 0.2. Consider DKKW, for which the “one-hybrid fitness for binding parS DNA” value was at most 0.2.

As for DGNS, the “one-hybrid fitness for binding parS DNA” value was at most 0.2. Consider DCGS, for which the “one-hybrid fitness for binding parS DNA” value is at most 0.2. In the case of SVKV, the “one-hybrid fitness for binding parS DNA” value was at most 0.2. As to APPK, the “one-hybrid fitness for binding parS DNA” value was at most 0.2. Turning to KTEC, the “one-hybrid fitness for binding parS DNA” value is at most 0.2. With PTVQ, the “one-hybrid fitness for binding parS DNA” value was at most 0.2. Turning to VASC, the “one-hybrid fitness for binding parS DNA” value is at most 0.2. Take NFRR: the “one-hybrid fitness for binding parS DNA” value was at most 0.2.

On to GYKC, for which the “one-hybrid fitness for binding parS DNA” value is at most 0.2. FHTY: the “one-hybrid fitness for binding parS DNA” value is at most 0.2.

With HALY, the “one-hybrid fitness for binding parS DNA” value was at most 0.2.

Take YMAT: the “one-hybrid fitness for binding parS DNA” value was at most 0.2.

As for RDTQ, the “one-hybrid fitness for binding parS DNA” value was at most 0.2. As for KRMP, the “one-hybrid fitness for binding parS DNA” value is at most 0.2. For the variant MERN, the “one-hybrid fitness for binding parS DNA” value was at most 0.2. With LSDM, the “one-hybrid fitness for binding parS DNA” value is at most 0.2. The result for DYVG reads at most 0.2. For the variant AFKG, the “one-hybrid fitness for binding parS DNA” value is at most 0.2. As for WAHC, the “one-hybrid fitness for binding parS DNA” value was at most 0.2. With LSYS the figure was at most 0.2. With SMTT the figure was at most 0.2; with SFTG, at most 0.2. Regarding ENPL, the “one-hybrid fitness for binding parS DNA” value was at most 0.2.

For the variant HVLW, the “one-hybrid fitness for binding parS DNA” value is at most 0.2.

For ALWR, the “one-hybrid fitness for binding parS DNA” value is at most 0.2. QHDM: the “one-hybrid fitness for binding parS DNA” value is at most 0.2.

Regarding RVCR, the “one-hybrid fitness for binding parS DNA” value was at most 0.2. With AVMR the figure was at most 0.2; with FRLY, at most 0.2; with YIYC, at most 0.2. With TPLK the figure was at most 0.2. With STPA, the “one-hybrid fitness for binding parS DNA” value was at most 0.2. With GPKC the figure was at most 0.2. For KRND, the “one-hybrid fitness for binding parS DNA” value was at most 0.2. For MPQC, the “one-hybrid fitness for binding parS DNA” value is at most 0.2. Regarding RPPM, the “one-hybrid fitness for binding parS DNA” value is at most 0.2. Regarding HKSD, the “one-hybrid fitness for binding parS DNA” value is at most 0.2. Consider QYHD, for which the “one-hybrid fitness for binding parS DNA” value was at most 0.2. With HHPD the figure was at most 0.2. Turning to MKCR, the “one-hybrid fitness for binding parS DNA” value is at most 0.2. Regarding KWGT, the “one-hybrid fitness for binding parS DNA” value was at most 0.2. With TNLG the figure was at most 0.2; with QRGH, at most 0.2.

On to PRKA, for which the “one-hybrid fitness for binding parS DNA” value was at most 0.2. On to NTMC, for which the “one-hybrid fitness for binding parS DNA” value is at most 0.2. Consider DTAT, for which the “one-hybrid fitness for binding parS DNA” value is at most 0.2. Take YRME: the “one-hybrid fitness for binding parS DNA” value was at most 0.2.

Regarding RSQT, the “one-hybrid fitness for binding parS DNA” value amounted to 0.874. SHVR: the “one-hybrid fitness for binding parS DNA” value is at most 0.2. With KHGT the figure was at most 0.2. With SQFA, the “one-hybrid fitness for binding parS DNA” value was at most 0.2. RFKD: the “one-hybrid fitness for binding parS DNA” value was at most 0.2.

As for TVHV, the “one-hybrid fitness for binding parS DNA” value was at most 0.2. As for FGRY, the “one-hybrid fitness for binding parS DNA” value is at most 0.2. With QFTY the figure was at most 0.2; with PWNN, at most 0.2; with QRFA, at most 0.2.

Regarding NYGS, the “one-hybrid fitness for binding parS DNA” value is at most 0.2. Turning to YHHR, the “one-hybrid fitness for binding parS DNA” value was at most 0.2. With RERN, the “one-hybrid fitness for binding parS DNA” value is at most 0.2. Take YMCW: the “one-hybrid fitness for binding parS DNA” value is at most 0.2.

In the case of YTWR, the “one-hybrid fitness for binding parS DNA” value is at most 0.2. On to RNTA, for which the “one-hybrid fitness for binding parS DNA” value is 0.473.

In the case of TTSI, the “one-hybrid fitness for binding parS DNA” value is at most 0.2. For the variant RNDT, the “one-hybrid fitness for binding parS DNA” value came to 0.562. The result for DPHA reads at most 0.2; that for PVAR, at most 0.2; that for YWTC, at most 0.2.

In the case of AYRV, the “one-hybrid fitness for binding parS DNA” value is at most 0.2. As to QEFS, the “one-hybrid fitness for binding parS DNA” value is at most 0.2. In the case of RTYN, the “one-hybrid fitness for binding parS DNA” value was 0.424. For the variant KSGG, the “one-hybrid fitness for binding parS DNA” value is at most 0.2. Regarding MTEI, the “one-hybrid fitness for binding parS DNA” value is at most 0.2. Consider PSKC, for which the “one-hybrid fitness for binding parS DNA” value was at most 0.2. As for QRMK, the “one-hybrid fitness for binding parS DNA” value was at most 0.2. CNRC: the “one-hybrid fitness for binding parS DNA” value is at most 0.2. With TNVQ the figure was at most 0.2; with KYYW, at most 0.2. LILS: the “one-hybrid fitness for binding parS DNA” value was at most 0.2.

On to YKGV, for which the “one-hybrid fitness for binding parS DNA” value was at most 0.2.

As for FGVA, the “one-hybrid fitness for binding parS DNA” value was at most 0.2.

On to PQDS, for which the “one-hybrid fitness for binding parS DNA” value is at most 0.2. On to SYDY, for which the “one-hybrid fitness for binding parS DNA” value was at most 0.2. With FNTL the figure was at most 0.2.

Consider HNRR, for which the “one-hybrid fitness for binding parS DNA” value was at most 0.2. In the case of THKV, the “one-hybrid fitness for binding parS DNA” value was at most 0.2. With CRLR the figure was at most 0.2. The result for QDNV reads at most 0.2.

For the variant RLNW, the “one-hybrid fitness for binding parS DNA” value turned out to be 0.211. CCGS: the “one-hybrid fitness for binding parS DNA” value was at most 0.2.

In the case of PRWF, the “one-hybrid fitness for binding parS DNA” value is at most 0.2. AQNC: the “one-hybrid fitness for binding parS DNA” value was at most 0.2. The result for TVRP reads at most 0.2; that for EELW, at most 0.2.

Take RHWV: the “one-hybrid fitness for binding parS DNA” value was at most 0.2. Regarding YPLY, the “one-hybrid fitness for binding parS DNA” value was at most 0.2. With HRRT, the “one-hybrid fitness for binding parS DNA” value was found to be 0.208. On to QVFK, for which the “one-hybrid fitness for binding parS DNA” value was at most 0.2. Turning to GGWM, the “one-hybrid fitness for binding parS DNA” value was at most 0.2. As to QAYD, the “one-hybrid fitness for binding parS DNA” value was at most 0.2. With QHRA the figure was at most 0.2; with WTPV, at most 0.2; with LISC, at most 0.2.
